Data as given in PubChem BioAssay AID1508642 (National Center for Advancing Translational Sciences (NCATS), 2021).
Screen size: about 43,000 compounds; about 200 (0.47%) were called active. Inconclusive results (about 12%) are left out. Calls come from the whole dose curve; as a rule, active = well fitted cell-killing curve with a large enough effect; inconclusive = small, poorly fitted or top-dose-only effect, or effect the other way; inactive = flat fitted curve, though single readings scatter. Some of the results follow.

Assay: Cell viability qHTS assay in S16 Pmp22-F2sN cells; note: nearly all actives have a fitted effect of over 65% in size
Conditions: S16 Pmp22-F2sN Schwann cells viability, CellTiter-Glo, 24 h; series mostly up to 57.5 µM; activity change, negative = cytotoxicity: at the top concentration
Procedure, shortened: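 Viability was measured by CellTiter-Glo luminescence (15 min, room temperature). This followed 24 h at 37 °C of compound exposure (23 nL pin transfer) in S16 Pmp22-F2sN Schwann cells, 500-1,000 per well.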
% is set by controls: 0 for no effect and ±100 for the full control effect.

Structure (SMILES)	activity change, negative = cytotoxicity
Cc1ccc(CSC2=Nc3ccccc3C3=NC(CCC(=O)NCc4cccs4)C(=O)N23)cc1 (stereo not given)	inactive: 4.64%
O=C(NCC(c1ccc2c(c1)OCO2)N1CCN(c2ccccc2)CC1)C(=O)Nc1cccc(F)c1 (stereo not given)	inactive: -1.74%
CCN(CC)C(=O)CSc1nc2cc3c(cc2c(=O)n1CCCCCC(=O)NCc1ccc(OC)cc1)OCO3	inactive: 1.38%
O=C(NCc1ccc2c(c1)OCO2)c1ccc2c(c1)N(Cc1cccc(Cl)c1)C(=O)c1ccccc1S2=O (stereo not given)	inactive: -0.629%
Cc1c(Cl)cccc1NC(=O)C1CCCN(c2nnc(-n3c(C)ccc3C)s2)C1 (stereo not given)	inactive: -7.77%
COc1ccc(C2=C(C)C(=O)N(Cc3ccc(C(=O)Nc4cccc(F)c4)cc3)S2(=O)=O)cc1	inactive: -17.1%
CC1CCCN(c2nc3c(S(=O)(=O)c4ccc(C(C)C)cc4)nnn3c3ccsc23)C1 (stereo not given)	inactive: 12.8%
Cc1ccc(-c2nc3c(C)cccn3c2Nc2ccccc2C)s1	inactive: 11.9%
Cc1ccc(F)cc1NC(=O)Cn1c(=O)nc(-c2ccccc2F)c2cc(Cl)ccc21	inactive: 8.9%
CCOc1ccc(CCNC(=O)c2cc3c(=O)n(C)c4ccccc4c3n2C)cc1OCC	inactive: 19.5%
COC(=O)c1ccc(NC(=O)CN2CCN(S(=O)(=O)c3ccc(Br)cc3)CC2)cc1	inactive: 7.59%
COc1ccc(S(=O)(=O)N(CC(=O)Nc2cc(C)ccc2OC)Cc2ccccc2)cc1	inactive: -9.89%
CCOc1ccccc1NS(=O)(=O)c1ccc2[nH]c3c(c2c1)CCCCC3	inactive: 17.6%
Cc1ccc(Cn2c(=O)n(-c3ccc(C)cc3)c(=O)c3c2c2cc(C)ccc2n3C)cc1	inactive: 8.99%
N#C/C(=C\c1cccc(F)c1)c1nc(-c2cc3c(ccc4ccccc43)oc2=O)cs1	inactive: 2.82%
CCOc1cc(C2c3c(oc4cc(C)cc(C)c4c3=O)C(=O)N2CCO)ccc1O (stereo not given)	inactive: 0.0946%
CSc1cccc(NC(=O)C2CCCN(C(=O)c3cnn(-c4ccc(F)cc4)c3-n3cccc3)C2)c1 (stereo not given)	inactive: -20%
O=C(CSc1cn(CC(=O)N2CCCCC2)c2ccccc12)NCc1ccc(F)cc1	inactive: 0.511%
Cc1ccc(OCC(=O)Nc2ccc3nc(SCC(=O)Nc4ccc(C)cc4C)sc3c2)cc1	inactive: 3.46%
CCCNC(=O)c1ccccc1NC(=O)c1nsc2ccccc12	inactive: 9.19%
COc1cccc(NC(=O)CSc2ncc3c(n2)-c2ccc(Cl)cc2N(C)S3(=O)=O)c1	inactive: -7.14%
CC(C)(C)c1ccc(C(=O)NC2(C(F)(F)F)NC(=O)N(CCc3ccccc3)C2=O)cc1 (stereo not given)	inactive: 12.3%
CCOc1ccc(CNC(=O)C2CCN(C(=O)N3CC(CC)Oc4ccccc43)CC2)cc1 (stereo not given)	inactive: 0.937%
Cc1c(Cl)cccc1NC(=O)N1CCOc2ccccc21	inactive: -0.996%

Structure (SMILES)	activity change, negative = cytotoxicity
COC(=O)c1sccc1S(=O)(=O)N1CCN(c2ccc(C)cc2C)CC1	inactive: 0.359%
CCOc1ccccc1NC(=O)C(=O)NCCc1sc2nc(-c3ccc(OC)cc3)nn2c1C	inactive: -0.548%
Cc1ccc(NC(=O)NCCOCCn2c(=O)oc3ccccc32)cc1C	inactive: 0.576%
Cc1ccccc1NC(=O)CSc1nc(-c2ccccc2)cn1-c1ccccc1F	inactive: -1.86%
O=C(NC1CCCC1)c1ccc2c(=O)n(Cc3ccccc3)c(SCc3cccc([N+](=O)[O-])c3)nc2c1	inactive: -8.18%
Cc1ccccc1OCc1nc2c3cnn(-c4ccccc4F)c3ncn2n1	inactive: 5.95%
COCCNC(=O)CSc1nc2cc3c(cc2c(=O)n1CCCC(=O)NCc1ccc2c(c1)OCO2)OCO3	inactive: -0.765%
COc1cccc(-n2c(-c3ccccc3F)nc3c(cnn3-c3ccc(C)cc3)c2=O)c1	inactive: -2.22%
CCOC(=O)C(Cc1ccccc1)NC(=O)CCc1c(C)nc2nc(C)nn2c1C (stereo not given)	inactive: 16%
Cc1ccc(Cl)cc1N1CCN(C(=O)Cn2c(-c3cccs3)cc3cc(F)ccc32)CC1	inactive: -1.71%
CCOC(=O)Cn1c(=O)cc(C(F)(F)C(F)(F)F)c2c(C)nn(CC)c21	inactive: 6.58%
CCc1ccc(OCC(=O)Nc2cc(-c3ccc(C)cc3)no2)cc1	inactive: -25.7%
COc1ccc(CNC(=O)CSc2ncc3c(n2)-c2cc(Cl)ccc2N(Cc2ccccc2)S3(=O)=O)cc1	inactive: 3.72%
CCOC(=O)CSC1=Nc2ccccc2C2=NC(CCC(=O)NCc3ccc(OC)cc3)C(=O)N12 (stereo not given)	inactive: 5.46%
Cc1ccccc1N1CCN(S(=O)(=O)c2ccccc2)CC1	inactive: 2.18%
Oc1c(C(c2ccccc2F)N2CCN(c3ccccc3F)CC2)sc2nc(-c3ccco3)nn12 (stereo not given)	inactive: 14.4%
Cc1cc(OCCn2c(CCNC(=O)C3CCCCC3)nc3ccccc32)ccc1Cl	inactive: -28.4%
Cc1ccc(-c2nc(SCC(=O)NCC3CCCO3)c3c(=O)n(C)c(=O)n(C)c3n2)cc1 (stereo not given)	inactive: 5.38%
Cc1cc(C)c(NC(=O)CSc2nccn2-c2cccc(Cl)c2)c(C)c1	inactive: 5.93%
COc1ccc(CNC(=O)CCC2N=C3c4ccccc4N=C(SCc4ccccc4F)N3C2=O)cc1 (stereo not given)	inactive: -20.5%
COc1ccc(C)cc1NS(=O)(=O)c1ccc2c3c(cccc13)C(=O)N2	inactive: 11.7%
COc1ccccc1Cn1ccn(Cc2ccc(C)cc2)c(=O)c1=O	inactive: -7%
CCCn1c(SCC(O)c2ccccc2)nc2ccccc21 (stereo not given)	inactive: 0.964%
COc1cccc(CNC(=O)CCCn2ncn3c(cc4occc43)c2=O)c1	inactive: 13.4%

Structure (SMILES)	activity change, negative = cytotoxicity
COc1ccc(-c2cc3c(=O)n(CC(=O)Nc4cc(F)ccc4F)ccn3n2)cc1OC	inactive: -0.656%
Cc1nn(-c2ccccc2)c2sc(C(=O)Nc3ccc(Br)cc3)cc12	inactive: -0.175%
O=C1COc2ccc(-c3cc(-c4ccccc4)c4c(n3)-c3ccccc3OC4)cc2N1	inactive: 17%
O=C(NCCc1ccc(Cl)cc1)c1ccc2c(c1)N(Cc1ccc(F)cc1)C(=O)CS2	inactive: -25.4%
COC(=O)c1sc(-c2ccccc2)cc1NC(=O)Nc1ccc(Cl)cc1	inactive: -23.6%
CC1=C(C(=O)NCc2ccccc2C)C2(CCCCCC2)OC1=O	inactive: -5.9%
CCCCN(Cc1cc2ccccc2[nH]c1=O)C(=O)c1cccc(Cl)c1	inactive: -0.297%
O=C(Oc1ccc(F)cc1)c1nc(SCc2ccc(F)cc2)ncc1Cl	inactive: 10.4%
COc1ccc(NC(=O)CCS(=O)(=O)c2ccc3c(c2)oc(=O)n3C)cc1OC	inactive: -0.0665%
Cc1ccc(-c2noc(-c3ccccc3NC(=O)C3CC(=O)N(c4ccc(C)cc4)C3)n2)cc1 (stereo not given)	inactive: 12.5%
COc1cc2nc(Nc3cccc(C)c3)nc(N)c2cc1OC	inactive: -26.9%
Cc1ccc(C(=O)NCC(c2ccco2)S(=O)(=O)c2cccs2)cc1C (stereo not given)	inactive: -10.5%
CCOc1ccc(-c2cc(NC(=O)Nc3ccc(Cl)cc3)c(C(=O)OC)s2)cc1	inactive: 2.5%
CCCSc1ncc(Cl)c(C(=O)N(Cc2cccc(Cl)c2)C2CCS(=O)(=O)C2)n1 (stereo not given)	inactive: -5.56%
CCOC(=O)c1c(NC(=O)CCCOc2ccc(C(C)(C)C)cc2)sc2c1CCCC2	inactive: 1.75%
COc1ccc(OC)c(NC(=O)c2cnc(N3CCCCC3)c3ccccc23)c1	inactive: 8.95%
CCC(=O)N1CCc2cc(S(=O)(=O)NCCC(=O)NCc3ccc(C)cc3)ccc21	inactive: 6.75%
Cc1cccc(C(c2sc3nc(-c4ccco4)nn3c2O)N2CCN(c3ccccc3F)CC2)c1 (stereo not given)	inactive: 15%
CCOC(=O)C1CCCN(S(=O)(=O)c2cc(Br)cc3c2N(C(C)=O)CC3)C1 (stereo not given)	inactive: 15.6%
CCOC(=O)N1CCC(NC(=O)c2cnn(-c3ccc(C)cc3C)c2C2CCN(C(=O)OC(C)(C)C)CC2)CC1	inactive: 45.1%
CC(=O)c1nn(-c2ccc(OC(F)(F)F)cc2)nc1Nc1ccccc1	inactive: -1.11%
CCc1nn(CCCC(=O)NCc2ccc(C)cc2)c(=O)c2cc3occc3n12	inactive: 15%
CCOc1ccccc1N(C)C(=O)Cn1nc(Cc2ccncc2)c2ccccc2c1=O	inactive: 21.2%
O=C(CN1CCCN(Cc2ccc(F)cc2)S1(=O)=O)Nc1ccc2c(c1)OCCO2	inactive: 6.25%

Structure (SMILES)	activity change, negative = cytotoxicity
CN(C)c1oc(-c2ccc(COc3ccccc3)o2)nc1C#N	inactive: -29.8%
COc1ccc(N2CCN(S(=O)(=O)CCNC(=O)c3cc(=O)c4ccccc4o3)CC2)cc1	inactive: -1.6%
CC(C)CN(CCNC(=O)c1cn(C)c2ccc(S(=O)(=O)N3CCCCCC3)cc2c1=O)CC(C)C	inactive: -1.56%
COc1cc(NC(=O)Cn2ccn(-c3cc(C)cc(C)c3)c(=O)c2=O)cc(OC)c1	inactive: 8.43%
Cc1cc(C)cc(NC(=O)CSc2nc(=O)[nH]c3c2CCC3)c1	inactive: -7.07%
CCc1ccc(NC(=O)CC2C(=O)N(c3ccc(C)cc3)C(=O)N2C2CCCC2)cc1 (stereo not given)	inactive: 0.0863%
CC(C)(C)c1ccc(Oc2nc3ccccn3c(=O)c2/C=C(\C#N)c2nc3ccccc3s2)cc1	inactive: -27.5%
COc1ccc2c(c1)CCc1sc(NC(=O)c3ccc(Br)cc3)nc1-2	inactive: -19.9%
CS(=O)(=O)c1cccc(-c2nnc(NC(=O)c3ccc4c(c3)OCCO4)o2)c1	inactive: 0.541%
Cc1cc(C)cc(NC(=O)CSc2nc3ncccc3[nH]2)c1	inactive: 23.7%
Cc1ccc(NC(=O)C(=O)NCC(c2ccc3c(c2)OCO3)N2CCN(C)CC2)c(C)c1 (stereo not given)	inactive: -13.9%
Cc1ccc(NC(=O)C(Cc2ccccc2)NS(=O)(=O)c2ccc3c(c2)CCC(=O)N3)cc1 (stereo not given)	inactive: -14.5%
Cc1cccc(NC(=O)CSc2nncn2C)c1	inactive: -1.23%
Cc1ccc(Nc2c(-c3ccc(O)cc3)nc3cccc(C)n23)cc1	inactive: -0.857%
Cc1nc(-c2ccc(Cl)cc2)sc1CCNC(=O)c1cccs1	inactive: -10.8%
CCCN(CCC)CCCNC(=O)Cn1ncc2c3ccccc3n(Cc3ccccc3)c2c1=O	inactive: -15.4%
Cc1ccc(NC(=O)Cc2csc(C)n2)c(C)c1	inactive: 4.6%
Cc1ccc(C(=O)Nc2ccc(OCc3cc(=O)n4c(C)csc4n3)cc2)cc1	inactive: 8.68%
O=C(c1ccc2c(c1)N(Cc1ccccc1)C(=O)c1ccccc1S2(=O)=O)N1CCCCCC1	inactive: -6.66%
CCCOc1ccc(-c2nc(SC)[nH]c(=O)c2C#N)cc1OC	inactive: -11.4%
Cc1ccc(-c2nonc2NC(=O)c2ccc(F)cc2)cc1C	inactive: -15.9%
Cc1cccc(NC(=O)CSc2c(C)cnc3c2c(=O)n(C)c(=O)n3C)c1C	inactive: 7.42%
Cc1cc(C)cc(NC(=O)C2CCCN(C(=O)c3cnn(-c4ccccc4)c3-n3cccc3)C2)c1 (stereo not given)	inactive: -3.08%
